# According to PubChem BioAssay AID504332 (National Center for Advancing Translational Sciences (NCATS), 2011):
# The whole screen tested about 350,000 compounds, of which about 31,000 (8.9%) were called active. Inconclusive means that the source gave no clear call. Such entries were picked first, then a sample of the others. Calls come from the whole dose curve; as a rule, active = well fitted inhibition curve with a large enough effect; inconclusive = small, poorly fitted or top-dose-only effect; inactive = no such curve, though single readings can be large or run the other way. A potency beside an inconclusive call is a rough fit, not a confirmed value.
# Target: Histone-lysine N-methyltransferase EHMT2 (Homo sapiens) (UniProt Q96KQ7)
# UniProt Q96KQ7, sequence (Q96KQ7 whole entry, looked up): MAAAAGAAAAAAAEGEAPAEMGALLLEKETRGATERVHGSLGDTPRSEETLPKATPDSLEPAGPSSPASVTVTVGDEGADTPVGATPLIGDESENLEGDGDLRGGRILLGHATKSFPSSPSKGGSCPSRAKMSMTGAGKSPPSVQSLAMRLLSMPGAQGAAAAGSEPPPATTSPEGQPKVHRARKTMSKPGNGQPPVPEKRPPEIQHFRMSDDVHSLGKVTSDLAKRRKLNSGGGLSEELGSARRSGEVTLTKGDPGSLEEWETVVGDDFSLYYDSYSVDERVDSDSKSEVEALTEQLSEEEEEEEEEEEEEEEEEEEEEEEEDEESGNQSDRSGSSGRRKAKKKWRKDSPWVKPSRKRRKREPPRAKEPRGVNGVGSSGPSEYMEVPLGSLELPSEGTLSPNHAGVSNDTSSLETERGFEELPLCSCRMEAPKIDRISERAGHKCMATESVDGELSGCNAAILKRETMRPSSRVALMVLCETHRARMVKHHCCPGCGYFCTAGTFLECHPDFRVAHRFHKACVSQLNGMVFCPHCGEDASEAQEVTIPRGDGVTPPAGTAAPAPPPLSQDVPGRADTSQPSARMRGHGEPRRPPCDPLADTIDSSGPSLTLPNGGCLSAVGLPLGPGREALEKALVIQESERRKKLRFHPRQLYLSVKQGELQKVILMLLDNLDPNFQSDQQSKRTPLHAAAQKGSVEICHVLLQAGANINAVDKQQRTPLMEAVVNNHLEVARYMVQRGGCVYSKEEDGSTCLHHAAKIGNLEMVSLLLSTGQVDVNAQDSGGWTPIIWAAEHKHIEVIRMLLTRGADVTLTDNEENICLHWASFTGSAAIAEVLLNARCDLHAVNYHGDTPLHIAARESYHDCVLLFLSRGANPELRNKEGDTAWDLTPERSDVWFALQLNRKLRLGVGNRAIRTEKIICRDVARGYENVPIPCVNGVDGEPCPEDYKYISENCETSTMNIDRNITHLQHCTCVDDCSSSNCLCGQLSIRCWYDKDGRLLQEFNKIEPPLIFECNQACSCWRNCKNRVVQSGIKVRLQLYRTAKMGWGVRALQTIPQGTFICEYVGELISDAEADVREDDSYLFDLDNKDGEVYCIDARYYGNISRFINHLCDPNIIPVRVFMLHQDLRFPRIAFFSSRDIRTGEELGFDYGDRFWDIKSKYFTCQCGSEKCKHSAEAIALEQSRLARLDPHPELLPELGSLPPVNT
# Experiment: qHTS Assay for Inhibitors of Histone Lysine Methyltransferase G9a; note: nearly all actives have a fitted effect of over 75% in size
# Conditions: G9a H3K9 monomethylation, AlphaScreen, 2 h; activity, negative = inhibition: at 59 µM (top of the series) unless noted
# In short: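 Signal arises when biotinylated H3K9 peptide, once monomethylated, bridges streptavidin donor and antibody-captured acceptor beads. Enzyme at 20 nM was preincubated 15 min with test compounds; peptide 500 nM and SAM 20 uM then reacted for 2 h.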
# % is set by controls: 0 for no effect and ±100 for the full control effect; potency is the fitted concentration of half-maximal effect; tags give direction and shape of the fitted curve.
SMILES,Potency,"activity, negative = inhibition"
COCCCNCCC(CCC(C)C)c1ccc2c(c1)OCO2 (stereo not given),"inconclusive: 25.1 µM [inhibitor, single point]",–
CCOC(=O)C1CCN(C(=O)/C(C)=C\c2ccccc2)CC1,inactive,–
O=C(COc1ccccc1)NCC(=O)Nc1ccc(S(=O)(=O)NCc2ccco2)cc1,–,inconclusive: -71.8% [inhibitor]
COc1ccc(-c2cc(=Nc3c(C)n(C)n(-c4ccccc4)c3=O)c3ccccc3o2)cc1,"inconclusive: 44.7 µM [inhibitor, partial curve]",–
COc1cc(C(=O)Nc2nnc(C(C)(C)C)s2)c([N+](=O)[O-])cc1OC,active: 10 µM,–
CC(Nc1cccc2ccccc12)C(=O)N/N=C/c1ccc([N+](=O)[O-])cc1 (stereo not given),"inconclusive: 20 µM [inhibitor, single point]",–
O=C(CSc1nnc(-c2ccc(OC(F)F)cc2)o1)N1CCOCC1,"inconclusive: 89.1 µM [inhibitor, single point]",–
O=C(O)C1Cc2ccccc2CN1C(=O)COc1ccc(Br)cc1 (stereo not given),active: 50.1 µM,–
CC(NCC1(N2CCOCC2)CCCCC1)C(=O)N1CCc2ccccc21 (stereo not given),"inconclusive: 1.41 µM [inhibitor, single point]",–
CCN(CCCNS(=O)(=O)c1ccc2c(c1)CCN2C(C)=O)c1cccc(C)c1,"inconclusive: 12.6 µM [inhibitor, partial curve, poor fit]",–
O=C(O)C(C(=O)/C=C/c1ccco1)=C1SCCS1,–,inconclusive: -88% [inhibitor]
COCCN(C(=S)Nc1ccc(C)cc1C)C(C)c1ccco1 (stereo not given),"inconclusive: 89.1 µM [inhibitor, single point]",–
CCCN=C(C)c1c(-c2ccccc2)[nH]n(-c2nc3ccccc3s2)c1=O,"inconclusive: 11.2 µM [inhibitor, single point]",–
CCn1c(/C=C/Nc2ccccc2)[n+](CC)c2ccc(C(=O)OCC(F)(F)F)cc21,"inconclusive: 31.6 µM [inhibitor, single point]",–
CN1CCN(C(=O)C2CCCN(S(=O)(=O)c3ccc(Br)cc3)C2)CC1 (stereo not given),"inconclusive: 15.8 µM [inhibitor, partial curve, poor fit]",–
c1ccc(CN(Cc2ccco2)C(c2ccncc2)c2nnnn2C2CCCC2)cc1 (stereo not given),active: 20 µM,–
O=C(Nc1ccc(Cl)cc1)/C(=C/c1ccc([N+](=O)[O-])cc1)c1nc2ccccc2s1,"inconclusive: 44.7 µM [inhibitor, partial curve, poor fit]",–
Cc1nc(S/C(=C\c2ccc(OCc3ccccc3Cl)cc2)C(=O)O)n[nH]1,–,inactive: -8.2% [at 0.0925 µM]
Fc1ccc(NC(=S)Nc2ccccc2N2CCOCC2)cc1Cl,"inconclusive: 44.7 µM [inhibitor, partial curve, poor fit]",–
CC(=O)NCc1nc2ccccc2n1Cc1ccccc1F,"inconclusive: 0.891 µM [inhibitor, partial curve, poor fit]",–
COc1ccc(NC(=O)CCS(=O)(=O)c2ccc(OC)cc2)cc1,"inconclusive: 2.51 µM [inhibitor, partial curve, poor fit]",–
CN(Cc1cccc(F)c1)C(=O)Cc1ccc(S(=O)(=O)N2CCOCC2)s1,"inconclusive: 79.4 µM [inhibitor, single point]",–
Cc1ccc(Cl)cc1NC(=O)C(=O)NCC(c1cccnc1)N1CCc2ccccc21 (stereo not given),"inconclusive: 15.8 µM [inhibitor, partial curve, poor fit]",–
Nc1ccc2oc3ccc(N)cc3c(=O)c2c1,"inconclusive: 28.2 µM [inhibitor, partial curve, poor fit]",–

SMILES,Potency,"activity, negative = inhibition"
O=C(CS(=O)(=O)c1cn(CC(=O)N2CCOCC2)c2ccccc12)Nc1ccccc1,"inconclusive: 89.1 µM [inhibitor, partial curve, poor fit]",–
CSc1ccc(CN(C)CC(=O)Nc2c(F)cccc2F)cc1,active: 6.31 µM,–
CCC(c1nnnn1Cc1ccco1)N(CCc1ccccc1)Cc1cc2cc(C)ccc2[nH]c1=O (stereo not given),active: 39.8 µM,–
COc1ccc(CCNC(=O)c2coc3ccccc3c2=O)cc1,"inconclusive: 35.5 µM [inhibitor, partial curve, poor fit]",–
Cc1cccc(NC(=O)NC(=O)c2ccccc2)n1,inactive,–
Cc1ccc2c(c1)C(c1ccc(F)cc1)N(C(=O)c1ccc(OC(C)C)cc1)CC(=O)N2 (stereo not given),inactive,–
O=C(NCCCCNC(=O)c1ccccn1)c1ccccn1,active: 3.55 µM,–
COc1cccc(/C=N/NC(N)=S)c1OCc1ccccc1Cl,inactive,–
Fc1cc(Br)ccc1NC(=S)Nc1cccnc1,"inconclusive: 79.4 µM [inhibitor, single point]",–
COc1ccc(N2CCN(CCCNC(=O)CC3Oc4ccc(C)cc4NC3=O)CC2)cc1 (stereo not given),active: 35.5 µM,–
COc1ccccc1/C=C(\C#N)C(=O)c1cccn1C,"inconclusive: 79.4 µM [inhibitor, single point]",–
COc1ccc(OCc2nnc(SCC(N)=O)n2-c2ccccc2OC)cc1,"inconclusive: 89.1 µM [inhibitor, single point]",–
COc1cc2[nH]c(=O)n(CCCC(=O)N3CCN(c4cccc(C(F)(F)F)c4)CC3)c(=O)c2cc1OC,inactive,–
O=C(CSc1ccccc1)Nc1ccc(-c2nc3ccccc3[nH]2)cc1,"inconclusive: 39.8 µM [inhibitor, single point]",–
CC(NC(=O)c1sc2cc([N+](=O)[O-])ccc2c1Cl)C(C)(C)C (stereo not given),active: 1.58 µM,–
O=C1CC(=C(c2ccccc2)c2ccccc2)C(=O)N1CCCN1CCN(c2cccc(Cl)c2)CC1,"inconclusive: 79.4 µM [inhibitor, single point]",–
COc1ccc(CN2C[C@H](C)[C@@H](CC(=O)NCc3ccccc3)C2=O)cc1,active: 50.1 µM,–
Cc1c(NC(=O)c2ccco2)cccc1-c1nc2cccnc2s1,active: 14.1 µM,–
CCn1cc(CN2CCN(CC(C)(C)C)C(CCO)C2)c2ccccc21 (stereo not given),active: 50.1 µM,–
NC(=O)CC(NC(=O)Cc1cccc2ccccc12)c1ccc(N2CCC(Br)CC2)c([N+](=O)[O-])c1 (stereo not given),–,inconclusive: -64.4% [inhibitor]
CCN1CCN(Cc2ccc(NC(=O)c3ccc(C)c(NC(=O)C4=NN(c5ccccc5)C(=O)C4)c3)cc2C(F)(F)F)CC1,–,inconclusive: -65.9% [inhibitor]
Cc1cc(C)c(NC(=S)NC(=O)c2ccc(-c3ccccc3)cc2)c(C)c1,"inconclusive: 28.2 µM [inhibitor, single point]",–
Cc1cccc(N2CCN(c3cccc(C)c3)C2c2cccnc2)c1,–,inconclusive: -92.1% [inhibitor]
O=C(CN1CCN(c2ccccc2)CC1)N1CCN(c2ccccc2)CC1,"inconclusive: 89.1 µM [inhibitor, single point]",–

SMILES,Potency,"activity, negative = inhibition"
CC(=O)C1=C(O)C(=O)N(c2ccc(O)cc2)C1c1ccc([N+](=O)[O-])cc1 (stereo not given),inactive,–
CC1CCCC(C)N1C(=O)CSc1nnc(COc2ccc(F)cc2)o1 (stereo not given),"inconclusive: 6.31 µM [inhibitor, partial curve, poor fit]",–
O=C(c1cccs1)N1N=C(c2ccccc2)CC1c1ccc(O)cc1 (stereo not given),"inconclusive: 35.5 µM [inhibitor, single point]",–
O=C(c1ccco1)N1CCN=C1SCc1ccc(F)cc1,inactive,–
O=C(O)c1ccc(/C=N/n2c(C3CCCCC3)n[nH]c2=S)cc1,active: 10 µM,–
CCOc1ccc(CCNC(=O)CN2N=C(c3ccccc3)CCC2=O)cc1OCC,inactive,–
c1cc(-c2sc(-c3ccncc3)c(-c3ccncc3)c2-c2ccncc2)ccn1,–,inconclusive: -90.1% [inhibitor]
O=C(NCc1ccc2c(c1)OCO2)c1cccc2c1C(=O)N(C1CCCCC1)C2,inactive,–
CCOC(=O)c1cccc(NC(=O)CSc2nnc(COc3ccccc3C)o2)c1,"inconclusive: 89.1 µM [inhibitor, single point]",–
O=C(Cc1ccccc1)N[C@@H](Cc1ccccc1)C(=O)O,inactive,–
Nc1ccc(-n2nncc2-c2ccc(Cl)cc2)cc1,active: 7.08 µM,–
CCN(CC)c1ccc(NC(=O)c2ccc(Br)o2)c(C)c1,"inconclusive: 3.16 µM [inhibitor, partial curve, poor fit]",–
COc1ccc(CNC(=O)c2ccc3c(c2)nc2n3CCOC2)c(OC)c1,inactive,–
CC1=C(C(=O)OCC(C)C)C(c2cc3c(cc2Br)OCO3)NC(=O)N1C (stereo not given),"inconclusive: 3.55 µM [inhibitor, full curve]",–
Cc1cncc(C(=O)O)[n+]1[O-],"inconclusive: 3.16 µM [inhibitor, partial curve, poor fit]",–
c1coc(CNCC2OCCc3ccccc32)c1 (stereo not given),"inconclusive: 89.1 µM [inhibitor, single point]",–
O=C1CCCN1CC(CN1CCOCC1)Sc1nc2ccccc2c(=O)n1-c1ccccc1 (stereo not given),"inconclusive: 89.1 µM [inhibitor, single point]",–
O=S(=O)(NCC(c1cccnc1)N1CCN(c2ccc(F)cc2)CC1)c1cccs1 (stereo not given),"inconclusive: 20 µM [inhibitor, single point]",–
O=C1C=Cc2ccccc2/C1=C/c1[nH]c(=O)[nH]c1O,"inconclusive: 56.2 µM [inhibitor, partial curve, poor fit]",–
Cc1cc(C)cc(NC(=O)CN2C(=O)c3ccccc3Sc3ncccc32)c1,inactive,–
C/C(Cc1ccccc1)=N\NC(=O)CNC(=O)c1cccc(Br)c1,inactive,–
CCCCNc1nc2ccccc2nc1NS(=O)(=O)c1cccs1,"inconclusive: 100 µM [inhibitor, single point]",–
